Results as given in the supplement of paper PMC11417369.
± gives the standard deviation of the averaged measurements. The list shows a part of the results.

system: PfAP2-G AP2 domain (GST-tagged); test: gcPBM binding intensity (ln(normalized median fluorescence intensity)); higher = stronger DNA binding
In short: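 An Agilent 4 × 180k array carrying primer-extended double-stranded 36-bp intergenic genomic probes and negative controls received GST-tagged P. falciparum DNA-binding domains expressed in E. coli, about 25 μg on average, for 1 h. The binding buffer contained 1× PBS, 1% milk, 0.2 mg/ml BSA, 0.5% salmon testes DNA and 0.03% Triton X-100. Binding intensity is the top Masliner-normalised natural-log median intensity across replicate spots of either probe orientation, read after Alexa488 anti-GST antibody staining and a 488 nm scan.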

Sequence | gcPBM binding intensity (ln)
AATAAATATCTGTACACACACAAATAAATACATATC [CACACA_site5108] | 11.4 ± 0.96
TATAATAAAAATAATACACACATATATAGCAATCGT [CACACA_site3241] | 10.12 ± 0.071
CAGAATAATTTTATCGGTACACACTGTATGCATAAT [XGTACX_site736] | 11 ± 0.49
TTTATAATAAAATTTTTACACACTTTAAAAAAAAAA [CACACA_site8070] | 9.91 ± 0.16
TTTTTTTCAATATTTGCACACGATTATAATATTTAA [CACACA_site2237] | 10.07 ± 0.071
AATATTCGTAATTGATGTACTTGTAATTCATACATT [XGTACX_site8314] | 11.1 ± 0.76
AAATTTTTTATTCTAATTAATATTTACACAATATAT [TGCATGCA_negctrl_site376] | 9.86 ± 0.11
TTCCATGTAGGACATGCATGCAGTTTTTAAAATATT [TGCATGCA_site481] | 11 ± 0.69
TATTATATAAATATACGTACATATACTAACCTTTTA [XGTACX_site6317] | 11.6 ± 0.91
TTCTGTATAATATAAAAACAAAAATTAAATTAAAAC [CACACA_negctrl_site81] | 9.89 ± 0.24
CATAAAATATAAAACACACACACATATATATATATA [CACACA_site223] | 10.2 ± 0.38
TATGACATATCCTGTAGTACAACGTATATATAAGAT [XGTACX_site1327] | 11.4 ± 0.86
AATAAAAATAATGAATGTACATATATATATACAATA [XGTACX_site3342] | 10.9 ± 0.4
ATATATAACGTGCACACACACATTTACGTATGAATA [CACACA_site6948] | 10.8 ± 0.45
TTTTATTAAAACCACGCATGCAGAGGAAACGGTGAG [TGCATGCA_site1029] | 10.4 ± 0.34
ATATATAATTTTTGCTGTACACAAAATATTAATTTA [XGTACX_site2057] | 11.5 ± 0.86
AAAAAAAACAATCTCATACACACTAGGGATTAATTA [CACACA_site1776] | 9.81 ± 0.042
ATTTTTTTATAAAATTTTTATATAATTTATTATAAA [GTGCAC_negctrl_site96] | 9.52 ± 0.22
TGAACAAAAAAAAATTGTACTTTTTTTTTAATATTT [XGTACX_site7172] | 11.5 ± 0.98
TTTCTTCGAAATAGAACACTTGTGCAAAATAAGCAA [XGTACX_negctrl_site361] | 10.04 ± 0.078
ATATATACTATAATAGTGCATTAAAAAAGTAAAAAT | 10.2 ± 0.25
TAAAGAGAAATATGTACATGCGAAAATGCCTTAAAT [TGCATGCA_site1050] | 11.2 ± 0.68

Sequence | gcPBM binding intensity (ln)
AAAATAATCTTTTGATTGCACTGTTACATTTTTTCT [GTGCAC_site9563] | 9.87 ± 0.13
AGACAATAATATAATCGTACAATAAATAAAATAAAA [XGTACX_site5231] | 11.2 ± 0.59
AAATATAATATACAAAGTACTTTTTCATCTTATATA [XGTACX_site8771] | 10.9 ± 0.53
AAATAATATAAACATACACACACACCGATATATATA [CACACA_site8945] | 9.8 ± 0.085
TTTCTAATTTATATCACACACATATAAATATAGTAA [CACACA_site6210] | 9.81 ± 0.028
ATCATTCAAAAATGCTGTACTAGGGGAAAACGTGTT [XGTACX_site7168] | 10.9 ± 0.59
ATATATAGGTTCCCTTTTCTTTTTTTTTTTTTTTTT [CACACA_negctrl_site1159] | 10.4 ± 0.27
ATGTATGAAAAAATGTGTACATAATTTTTTTTTTTT [XGTACX_site5444] | 11.7 ± 1
AACAAAAGTAATTAAAAACAATACAAACATATGTTT [XGTACX_negctrl_site220] | 9.78 ± 0.15
TGGATAAAATAAAAATGTACTTAACATTTATATTTT [XGTACX_site712] | 10.8 ± 0.51
TATATATATATAAGATGTACCCTTTGAAATAATAAT [XGTACX_site7215] | 11.2 ± 0.51
TGATACTGCAAAAAATATAAAAAAATAATAAAATAA [CACACA_negctrl_site791] | 9.745 ± 0.064
TTAAATGTTGGTTGTAGTACTCCATATGTTGTTTTA [XGTACX_site5312] | 11.5 ± 0.83
CTTATGTGCATACCTACACACTTACATATATATATA [CACACA_site8973] | 10.5 ± 0.61
TTTGGAATATTAATTGTGCACTTAAAAAGTTAATTA | 10.3 ± 0.33
TTACCATTTGAAAATTCACACACTTTATTTTGTTAT [CACACA_site3799] | 9.74 ± 0.26
AACATAAAACGTAATATATTACAAATATAAACAATC [CACACA_negctrl_site1675] | 9.92 ± 0.16
ATTTATACATATAAACGTACATACATATATAATATT [XGTACX_site2969] | 11.4 ± 0.65
ATATATATATATATATGTACATATTTTATAACTGTA [XGTACX_site5395] | 11.3 ± 0.69
TAAAAGTTCACCTGTACACACATATATATATGTACA [CACACA_site1707] | 11.6 ± 0.85
TACTTTACACATATTTTTAATTATTCTGAATTCAAA [GTGCAC_negctrl_site253] | 9.905 ± 0.049
ATATATATATATGTAGTGCATTTTATATATAATATT | 10.1 ± 0.16
